Measurements: patent US10703698B2, “Compounds which activate estrogen receptors and compositions and methods of using the same” (The Board of Trustees of the University of Illinois, priority 2016, dated 2020)
Entries after “also recorded” stand apart in the source; their conditions may differ. For some assays here: For at least one compound, name, drawing or mass did not settle the structure. Some results were stated once for a whole list of compounds, not compound by compound.

Assays:
LRRC54 gene vs PgR gene = assay: preferential activation of non-genomic (LRRC54) over genomic (PgR) gene; conditions: relative to activation by E2
[1] = system: ovariectomized C57BL/6 mice; assay: stroke model, transient middle cerebral artery occlusion (tMCAo); conditions: for rotorod function post-stroke, in words: mouse, in vivo
[2] = system: ovariectomized C57BL/6 mice; assay: ovariectomized mice: uterus, thymus and mammary gland effects; conditions: 3 weeks
[3] = system: ovariectomized C57BL/6 mice; assay: ovariectomized mice: body weight, body composition and metabolic effects
[4] = system: ERα knock-out (ERKO) C57BL/6 mice; assay: effects in ERα knock-out (ERKO) mice; type: in vivo; conditions: 3 weeks
Method: FIG. 13. Effects of PaPE-1 require ERα. […] Animals were on normal chow diet. Change in body weight was monitored. (B) Uterus weights of animals from (A) at the end of 3 weeks of vehicle (Veh) or ligand treatment. (C) Triglyceride levels in the blood of animals from (A) after 3 weeks of ligand exposure.
Studies used wild type and ERα knockout mice in C57BL/6 background. All experiments involving animals were conducted in accordance with National Institutes of Health standards for the use and care of animals, with protocols approved by the University of Illinois at Urbana-Champaign and the University of Texas Southwestern Medical Center. Wild-type C57BL/6 mice were purchased from Jackson Laboratories/National Cancer Institute. ERα knockout mice with complete excision of ERα and wild type littermates were obtained from Taconic and were used as described previously in Dupont et al., Development, 127, 4277-4291, […], and Hewitt et al. FASEB J., 24, 4660-4667, 2010.

MCF-7 cells = assay: MCF-7 cell proliferation, WST-1 assay; type: cell-based, human; conditions: 6 days
Method: Cells were seeded at 1000 cells/well in 96-well plates.

[5] = system: ERα recruitment to chromatin; assay: ChIP-Seq in MCF-7 cells; type: cell-based, human; conditions: 45 min
[6] = system: ovariectomized C57BL/6 mice; assay: gene regulation and signaling pathway activation in tissues in vivo; conditions: 3 weeks
mTOR and MAPK signaling = assay: Western blot of signaling pathway activation in MCF-7 cells; type: cell-based, human
Source text: Western blot analysis used specific antibodies for ERα (HC-20, Santa Cruz); ERK2 (D-2, Santa Cruz); and pS^6, pS6K, pmTOR, pRAPTOR, pRICTOR, pMAPK (Cell Signaling). Coimmunoprecipitation assays used antibodies for SRC3 (Santa Cruz, C-20) and ERα (Santa Cruz, F10).

LRRC54 gene = assay: LRRC54 (non-genomic gene) mRNA expression, qPCR; conditions: MCF-7 cells; 1 μM PaPE or 10 nM E2 for 4 h where stated; versus vehicle, E2 or compound 2

Cc1cc(-c2cccc(CO)c2)cc(C)c1O [Compound 24]
preference for activation of the non-genomic pathway (LRRC54 over PgR), in words (LRRC54 gene vs PgR gene): clear evidence of preference for activation of the non-genomic pathway

COC1CC(=O)c2ccc(-c3cc(C)c(O)c(C)c3)cc21 (centres unmarked) [Compound 29]
preference for activation of the non-genomic pathway (LRRC54 over PgR), in words (LRRC54 gene vs PgR gene): clear evidence of preference for activation of the non-genomic pathway

C[C@]12CC[C@@H]3c4ccc(O)cc4CC[C@H]3[C@@H]1CC[C@@H]2O [Compound E2, estradiol, reference compound]
infarct volumes ([1]; 3d and 7d post-tMCAo, compared with vehicle): significantly reduced infarct volumes | degree of swelling associated with the injury ([1]; 3 days post-stroke): attenuated | rotorod function post-stroke, in words [1]: improved function post-stroke | rotorod function post-stroke, in words ([1]; listed as estradiol): improved function only at d13 | mammary gland adiposity / adipocyte area [2]: reduced mammary gland adiposity | hepatocyte lipid content (Oil Red O) ([3]; 3 weeks): decreased hepatocyte lipid content | liver expression of FASN and SREBP-1c ([3]; 3 weeks): reduced | triglyceride levels in blood ([3]; 3 weeks): decreased triglyceride levels in blood | weight of fat depots / adipose stores ([3]; 3 weeks): decreased the weight of all of the fat depots examined | body weight gain after ovariectomy ([3]; 3 weeks, E2 5 μg/day, PaPE 300 μg/day pellets): suppressed; also recorded: reduced body weight gain after ovariectomy; also recorded: reduce weight gain after ovariectomy | fat mass (EchoMRI) ([3]; end of 3 weeks): greatly reduced fat mass; also recorded: reduced fat mass more markedly | lean mass and water mass (EchoMRI) ([3]; end of 3 weeks): increased only by E2; also recorded: did increase lean mass and water mass | ability to diminish body weight gain after ovariectomy in ERKO mice [4]: lost in the ERKO mice | proliferation of MCF-7 cells (MCF-7 cells): potently stimulated proliferation | recruitment of ERα to chromatin [5]: recruited to chromatin | gene expression changes in uterus [6]: induced gene expression changes in uterus | Serl 18 phosphorylation of ERα (mTOR and MAPK signaling): observed | LRRC54 (non-genomic gene) mRNA expression, in words (LRRC54 gene): stimulated expression of both genes very well

Oc1c(Cl)cc(-c2ccc3c(c2)CCC3O)cc1Cl (centres unmarked) [Compound 63, 5-(3,5-dichloro-4-hydroxyphenyl)-2,3-dihydro-1H-inden-1-ol]
preference for activation of the non-genomic pathway (LRRC54 over PgR), in words (LRRC54 gene vs PgR gene): clear evidence of preference for activation of the non-genomic pathway

Cc1cc(-c2ccc(CO)cc2C(F)(F)F)cc(C)c1O [Compound 28]
preference for activation of the non-genomic pathway (LRRC54 over PgR), in words (LRRC54 gene vs PgR gene): little or no preference for activation of the non-genomic pathway

Cc1cc(-c2ccc3c(c2)CC[C@@H]3O)cc(C)c1O [Compound 3, S-5-(4-hydroxy-3,5-dimethylphenyl)-2,3-dihydro-1H-inden-1-ol]
preference for activation of the non-genomic pathway (LRRC54 over PgR), in words (LRRC54 gene vs PgR gene): clear evidence of preference for activation of the non-genomic pathway

COC1CC(O)c2ccc(-c3cc(C)c(O)c(C)c3)cc21 (centres unmarked) [Compound 30]
preference for activation of the non-genomic pathway (LRRC54 over PgR), in words (LRRC54 gene vs PgR gene): clear evidence of preference for activation of the non-genomic pathway

OCc1cc(-c2ccccc2)ccc1O [Compound 61, 4-Hydroxy-3-hydroxymethyl-biphenyl]
preference for activation of the non-genomic pathway (LRRC54 over PgR), in words (LRRC54 gene vs PgR gene): little or no preference for activation of the non-genomic pathway

Cc1cc(-c2cccc(CC(=O)O)c2)cc(C)c1O [Compound 49]
preference for activation of the non-genomic pathway (LRRC54 over PgR), in words (LRRC54 gene vs PgR gene): little or no preference for activation of the non-genomic pathway

Cc1cc(-c2ccc(O)c(CO)c2)cc(C)c1O [Compound 59, 3′-(hydroxymethyl)-3,5-dimethyl-[1,1′-biphenyl]-4,4′-diol]
preference for activation of the non-genomic pathway (LRRC54 over PgR), in words (LRRC54 gene vs PgR gene): clear evidence of preference for activation of the non-genomic pathway

OCc1cc(-c2cc(Cl)c(O)c(Cl)c2)ccc1O [Compound 64, 3,5-Dichloro-3′-(hydroxymethyl)-[1,1′-biphenyl]-4,4′-diol]
preference for activation of the non-genomic pathway (LRRC54 over PgR), in words (LRRC54 gene vs PgR gene): clear evidence of preference for activation of the non-genomic pathway

Cc1cc(-c2ccc(C(C)O)cc2)cc(C)c1O (centres unmarked) [Compound 15, 4′-(1-hydroxyethyl)-3,5-dimethyl-[1,1′-biphenyl]-4-ol]
preference for activation of the non-genomic pathway (LRRC54 over PgR), in words (LRRC54 gene vs PgR gene): clear evidence of preference for activation of the non-genomic pathway

Cc1cc(-c2ccc3c(c2)CCC3O)cc(C)c1O (racemic) [Compound 2, 5-(4-hydroxy-3,5-dimethylphenyl)-2,3-dihydro-1H-inden-1-ol]
preference for activation of the non-genomic pathway (LRRC54 over PgR), in words (LRRC54 gene vs PgR gene): clear evidence of preference for activation of the non-genomic pathway

Cc1cc(-c2ccc3c(c2)CCCC3O)cc(C)c1O (centres unmarked) [Compound 16, 6-(4-hydroxy-3,5-dimethylphenyl)-1,2,3,4-tetrahydronaphthalen-1-ol]
preference for activation of the non-genomic pathway (LRRC54 over PgR), in words (LRRC54 gene vs PgR gene): clear evidence of preference for activation of the non-genomic pathway

Cc1cc(-c2ccc(CO)c(C(F)(F)F)c2)cc(C)c1O [Compound 27]
preference for activation of the non-genomic pathway (LRRC54 over PgR), in words (LRRC54 gene vs PgR gene): little or no preference for activation of the non-genomic pathway

Cc1cc(-c2ccc3c(c2)CC[C@H]3O)cc(C)c1O [Compound 4, R-5-(4-hydroxy-3,5-dimethylphenyl)-2,3-dihydro-1H-inden-1-ol]
preference for activation of the non-genomic pathway (LRRC54 over PgR), in words (LRRC54 gene vs PgR gene): clear evidence of preference for activation of the non-genomic pathway

Cc1cc(-c2ccc(CO)c(F)c2)cc(C)c1O [Compound 25, 3′-fluoro-4′-(hydroxvmethyl)-3,5-dimethyl-[1,1′-biphenyl]-4-ol]
preference for activation of the non-genomic pathway (LRRC54 over PgR), in words (LRRC54 gene vs PgR gene): little or no preference for activation of the non-genomic pathway

Cc1cc(-c2ccc3c(c2)C=CC3=O)cc(C)c1O [Compound 18]
preference for activation of the non-genomic pathway (LRRC54 over PgR), in words (LRRC54 gene vs PgR gene): clear evidence of preference for activation of the non-genomic pathway

Oc1ccc(-c2ccc3c(c2)CCC3O)cc1 (centres unmarked) [Compound 32]
preference for activation of the non-genomic pathway (LRRC54 over PgR), in words (LRRC54 gene vs PgR gene): clear evidence of preference for activation of the non-genomic pathway

Cc1cc(-c2ccc(CO)cc2)cc(C)c1O [Compound 23]
preference for activation of the non-genomic pathway (LRRC54 over PgR), in words (LRRC54 gene vs PgR gene): little or no preference for activation of the non-genomic pathway

OCc1cc(-c2ccccc2)cc(CO)c1O [Compound 62]
preference for activation of the non-genomic pathway (LRRC54 over PgR), in words (LRRC54 gene vs PgR gene): little or no preference for activation of the non-genomic pathway

Cc1cc(-c2ccc(CO)c(O)c2)cc(C)c1O [Compound 60, 4-(hydroxymethyl)-3′,5′-dimethyl-[1,1′-biphenyl]-3,4′-diol]
preference for activation of the non-genomic pathway (LRRC54 over PgR), in words (LRRC54 gene vs PgR gene): clear evidence of preference for activation of the non-genomic pathway

Cc1cc(-c2ccc(CCCO)cc2)cc(C)c1O [Compound 48, 4′-(3-hydroxypropyl)-3,5-dimethyl-[1,1′-biphenyl]-4-ol]
preference for activation of the non-genomic pathway (LRRC54 over PgR), in words (LRRC54 gene vs PgR gene): little or no preference for activation of the non-genomic pathway

Cc1cc(-c2cc(C)c(O)c(C)c2)ccc1CO [Compound 26]
preference for activation of the non-genomic pathway (LRRC54 over PgR), in words (LRRC54 gene vs PgR gene): clear evidence of preference for activation of the non-genomic pathway
